The list shows a part of the results.

The record followed here is the supplement of paper PMC3724861.

The subject of the test is T1, Caupolican (Caup) homeodomain DNA-binding domain.
T1 sequence: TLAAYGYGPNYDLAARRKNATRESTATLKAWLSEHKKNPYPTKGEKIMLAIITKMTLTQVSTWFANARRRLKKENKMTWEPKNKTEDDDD
Put plainly: PBM E-score (8-mer, recovered from the published 9-mer minima) (E-score (dimensionless, -0.5 to 0.5)); Drosophila protein; higher = stronger relative binding preference, active = 0.31 or more. Put shortly:
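Caup's homeodomain DNA-binding domain (residues 214-303) was made by in vitro transcription and translation and applied at 100 nM to custom-designed protein binding microarrays. Each value is an enrichment score that gives relative binding preference for a short DNA word, with higher meaning stronger. The 8-mer values were recovered from published 9-mer scores, each of which was the minimum of its two constituent 8-mer scores. A cutoff of 0.31 marks candidate sites.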
For the sequence ATATATTC, the “PBM E-score” value is inactive: 0.192.

Regarding CTGCATCC, the “PBM E-score” value was inactive: -0.107.

With ACAAACAA, the “PBM E-score” value is active: 0.317.

As for CGTACCGA, the “PBM E-score” value was inactive: -0.0516.

Turning to CCTTTCTC, the “PBM E-score” value is inactive: -0.119.

Turning to CCACCTGC, the “PBM E-score” value was inactive: -0.159.

Regarding CAGTCATC, the “PBM E-score” value was inactive: 0.0135.

For the sequence GGCCGTAC, the “PBM E-score” value is inactive: -0.00275.

In the case of GCGGGTAA, the “PBM E-score” value was inactive: -0.02.

Take AGCATTAT: the “PBM E-score” value was at least 0.202.

Take CATAGAGG: the “PBM E-score” value was inactive: -0.0732.

Take GGGTATTA: the “PBM E-score” value is inactive: -0.0519.

With ACGAGGTC, the “PBM E-score” value is inactive: -0.0579.

ACCCGAAA: the “PBM E-score” value is inactive: -0.018.

Consider ACTGGTAC, for which the “PBM E-score” value was inactive: 0.127.

ATTTGCCC: the “PBM E-score” value is inactive: -0.0906.

In the case of AATTAGGC, the “PBM E-score” value was inactive: 0.0072.

Regarding CGTGAACA, the “PBM E-score” value was inactive: 0.206.

For ATATGTGC, the “PBM E-score” value was inactive: 0.118.

Turning to CTCATTTC, the “PBM E-score” value is inactive: -0.0332.

On to CGTCATGA, for which the “PBM E-score” value is inactive: 0.0386.

With ATACCGAG, the “PBM E-score” value was inactive: 0.00098.

In the case of ACCCTAGC, the “PBM E-score” value is inactive: -0.039.

Turning to ATACATAC, the “PBM E-score” value was active: 0.332.

As to AAATAAGT, the “PBM E-score” value is inactive: 0.139.

For ATAGCAGC, the “PBM E-score” value was inactive: -0.0281.

Consider AGTCTTTG, for which the “PBM E-score” value was inactive: -0.0276.

Regarding ACCACTCG, the “PBM E-score” value is inactive: 0.0224.

Consider CCCTCCTC, for which the “PBM E-score” value is inactive: -0.26.

As to GTAGTGGA, the “PBM E-score” value was inactive: 0.0565.

In the case of GCATCGGA, the “PBM E-score” value was inactive: -0.00106.

As to CGGATTCA, the “PBM E-score” value is inactive: -0.00675.

Turning to ACGTACCA, the “PBM E-score” value was inactive: 0.0679.

Regarding AATCTCTC, the “PBM E-score” value was inactive: -0.00201.

Regarding CTTTGACC, the “PBM E-score” value is inactive: -0.0216.

For the sequence GGCCTTGA, the “PBM E-score” value is inactive: -0.179.

As for AGGAATGC, the “PBM E-score” value is inactive: -0.00942.

As for AATCCGAG, the “PBM E-score” value was inactive: -0.00289.

Turning to AACAGCAC, the “PBM E-score” value is inactive: 0.108.

For TAACAGCA, the “PBM E-score” value is inactive: 0.145.

Take ACGGTTAG: the “PBM E-score” value is inactive: -0.0469.

Consider GCTGAGGA, for which the “PBM E-score” value was inactive: -0.139.

Regarding ACGAATTG, the “PBM E-score” value was inactive: 0.057.

Consider CTAAGCAA, for which the “PBM E-score” value was inactive: -0.0272.

For GTTTAGTA, the “PBM E-score” value was inactive: 0.183.

On to AAGCTCTG, for which the “PBM E-score” value is inactive: -0.0643.

Consider AGCTCTCA, for which the “PBM E-score” value was inactive: -0.0906.

For CGAACGAA, the “PBM E-score” value is inactive: -0.0169.

Take GTTTTGCA: the “PBM E-score” value is inactive: 0.0778.

On to AGTTTCTG, for which the “PBM E-score” value was inactive: 0.0466.

With GAGCTTCA, the “PBM E-score” value was inactive: -0.0607.

CCCAGTGC: the “PBM E-score” value was inactive: -0.151.

Take CAAGTTTA: the “PBM E-score” value was inactive: 0.0933.

On to GCGGTTAC, for which the “PBM E-score” value was inactive: -0.0733.

As to GATCGAAC, the “PBM E-score” value is inactive: 0.0391.

As for ACCAAGAA, the “PBM E-score” value is inactive: 0.0421.

For the sequence CGCGAATC, the “PBM E-score” value was inactive: -0.0614.

Turning to AAGTAGTA, the “PBM E-score” value is inactive: 0.186.

ATACTCCC: the “PBM E-score” value was inactive: -0.00697.

In the case of CCTCTGGC, the “PBM E-score” value is inactive: -0.225.

On to AGGGAGAC, for which the “PBM E-score” value was inactive: -0.161.

For the sequence ACGTGGAA, the “PBM E-score” value is inactive: 0.0233.

Consider AGGATGAG, for which the “PBM E-score” value was inactive: -0.106.

For the sequence TAGCAGAA, the “PBM E-score” value is inactive: -0.00478.

For ATTTAGCA, the “PBM E-score” value was at least 0.0719.

As for TTCGAAAA, the “PBM E-score” value was inactive: 0.029.

As to AGCTTGTG, the “PBM E-score” value was inactive: -0.0301.

GTTGCCCA: the “PBM E-score” value was inactive: -0.0462.

Turning to CATCTGCA, the “PBM E-score” value was inactive: 0.0265.

In the case of GGATCCCC, the “PBM E-score” value is inactive: -0.255.

Regarding CTTGGCCC, the “PBM E-score” value was inactive: -0.35.

Take GTGCTACA: the “PBM E-score” value is inactive: 0.169.

As to CACGCTAG, the “PBM E-score” value is inactive: -0.0669.

For the sequence ACTCCATG, the “PBM E-score” value is inactive: 0.0194.

On to CCGAAACC, for which the “PBM E-score” value was inactive: -0.0852.

As to AGAATCAA, the “PBM E-score” value is inactive: 0.0334.

Take CCGTTCAA: the “PBM E-score” value was inactive: -0.0813.

On to AACGGAAG, for which the “PBM E-score” value was inactive: -0.0476.

As for GTAATCCA, the “PBM E-score” value was inactive: 0.161.

On to CGGCGTGC, for which the “PBM E-score” value was inactive: -0.208.

With AACTCATC, the “PBM E-score” value is inactive: 0.0561.

For the sequence GGGCTAAC, the “PBM E-score” value is inactive: -0.179.

As for CTATTGCC, the “PBM E-score” value is inactive: -0.0718.

Turning to GCAGAGCC, the “PBM E-score” value is inactive: -0.291.

On to AACACTGA, for which the “PBM E-score” value is inactive: 0.145.

As to AAGCGGCG, the “PBM E-score” value was inactive: -0.17.

Consider AATTCTGC, for which the “PBM E-score” value is inactive: 0.00641.

On to GAGTGGGC, for which the “PBM E-score” value was inactive: -0.155.

CACAACCA: the “PBM E-score” value is inactive: 0.103.

On to CCGACTCG, for which the “PBM E-score” value was inactive: -0.124.

AGATTTGG: the “PBM E-score” value was inactive: -0.0132.

TACATCAA: the “PBM E-score” value was active: 0.331.

For the sequence GGGAACCC, the “PBM E-score” value is inactive: -0.17.

CATGAAAA: the “PBM E-score” value was inactive: 0.198.

Turning to CGACGAGA, the “PBM E-score” value is inactive: -0.0279.

CCGGCTCG: the “PBM E-score” value is inactive: -0.205.

Regarding GCCTGTAC, the “PBM E-score” value was inactive: 0.164.

As for CACTTCGC, the “PBM E-score” value was inactive: -0.0353.

As to CGGGGGTC, the “PBM E-score” value is inactive: -0.274.

For AAATACAA, the “PBM E-score” value was active: 0.327.

Consider CGGACACG, for which the “PBM E-score” value is inactive: 0.184.

For AACTGTAG, the “PBM E-score” value is inactive: 0.121.

Consider AAGTATCC, for which the “PBM E-score” value is inactive: -0.0551.

As to ACACTAGC, the “PBM E-score” value is inactive: 0.0352.

AACGGTTA: the “PBM E-score” value was inactive: -0.00156.

For AACTTATT, the “PBM E-score” value is at least 0.188.

Turning to AGACCACT, the “PBM E-score” value is inactive: -0.00222.

On to AATAAGTC, for which the “PBM E-score” value is inactive: 0.0266.

On to GCCAGCGA, for which the “PBM E-score” value is inactive: -0.154.

Take CCATCAAC: the “PBM E-score” value is inactive: 0.0807.

AATAGTAT: the “PBM E-score” value is inactive: 0.175.
